The other results are listed elsewhere or left out.
What was measured:
Assay in all cases: glycan array binding signal (z-score within array); higher = stronger binding
Settings in all cases: glycan notation: IUPAC condensed, linker removed
[1] = target: Neu5Ac(a2-6)Gal(b1-4)GlcNAc(b1-3)Gal(b1-4)GlcNAc(b1-3)[Neu5Ac(a2-6)Gal(b1-4)GlcNAc(b1-3)Gal(b1-4)GlcNAc(b1-6)]GalNAc
How it was run: (§1)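 Arrays were curated from the Consortium for Functional Glycomics database, 3228 in total, and kept only where the protein sequence was available. Binding is expressed as a within-array Z-score. This score was averaged across arrays of the same protein sequence at different concentrations or buffers and across linkers, and negative values can be read as non-binding.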

[2] = target: Neu5Ac(a2-6)Gal(b1-4)GlcNAc(b1-3)Gal(b1-4)GlcNAc(b1-6)[Gal(b1-3)]GalNAc
How it was run: as §1

[3] = target: Neu5Ac(a2-6)Gal(b1-4)GlcNAc(b1-3)Gal(b1-4)[Fuc(a1-3)]GlcNAc(b1-3)Gal(b1-4)[Fuc(a1-3)]GlcNAc
How it was run: as §1

[4] = target: Neu5Ac(a2-6)Gal(b1-4)GlcNAc(b1-3)GalNAc
How it was run: as §1

[5] = target: Neu5Ac(a2-6)Gal(b1-4)GlcNAc(b1-3)[Neu5Ac(a2-6)Gal(b1-4)GlcNAc(b1-6)]GalNAc
How it was run: as §1

[6] = target: Neu5Ac(a2-6)Gal(b1-4)GlcNAc(b1-6)GalNAc
How it was run: as §1

[7] = target: Neu5Ac(a2-6)Gal(b1-4)GlcNAc(b1-6)[Gal(b1-3)GlcNAc(b1-3)]Gal(b1-4)Glc
How it was run: as §1

[8] = target: Neu5Ac(a2-6)Gal(b1-4)GlcNAc(b1-6)[Gal(b1-3)]GalNAc
How it was run: as §1

[9] = target: Neu5Ac(a2-6)Gal(b1-4)GlcNAc6S
How it was run: as §1

[10] = target: Neu5Ac(a2-6)GalNAc
How it was run: as §1

[11] = target: Neu5Ac(a2-6)GalNAc(b1-4)GlcNAc
How it was run: as §1

[12] = target: Neu5Ac(a2-6)GalNAc(b1-4)GlcNAc6S
How it was run: as §1

[13] = target: Neu5Ac(a2-6)GlcNAc(b1-4)GlcNAc
How it was run: as §1

[14] = target: Neu5Ac(a2-6)GlcNAc(b1-4)GlcNAc(b1-4)GlcNAc
How it was run: as §1

[15] = target: Neu5Ac(a2-8)Neu5Ac
How it was run: as §1

[16] = target: Neu5Ac(a2-8)Neu5Ac(a2-3)Gal(b1-3)GalNAc(b1-4)[Neu5Ac(a2-3)]Gal(b1-4)Glc
How it was run: as §1

[17] = target: Neu5Ac(a2-8)Neu5Ac(a2-3)Gal(b1-3)GalNAc(b1-4)[Neu5Ac(a2-8)Neu5Ac(a2-3)]Gal(b1-4)Glc
How it was run: as §1

[18] = target: Neu5Ac(a2-8)Neu5Ac(a2-3)Gal(b1-4)Glc
How it was run: as §1

[19] = target: Neu5Ac(a2-8)Neu5Ac(a2-3)Gal(b1-4)GlcNAc
How it was run: as §1

[20] = target: Neu5Ac(a2-8)Neu5Ac(a2-3)[Gal(b1-3)GalNAc(b1-4)]Gal(b1-4)Glc
How it was run: as §1

[21] = target: Neu5Ac(a2-8)Neu5Ac(a2-3)[GalNAc(b1-4)]Gal(b1-4)Glc
How it was run: as §1

[22] = target: Neu5Ac(a2-8)Neu5Ac(a2-8)Neu5Ac
How it was run: as §1

[23] = target: Neu5Ac(a2-8)Neu5Ac(a2-8)Neu5Ac(a2-3)Gal(b1-4)Glc
How it was run: as §1

[24] = target: Neu5Ac(a2-8)Neu5Ac(a2-8)Neu5Ac(a2-3)[Gal(b1-3)GalNAc(b1-4)]Gal(b1-4)Glc
How it was run: as §1

[25] = target: Neu5Ac(a2-8)Neu5Ac(a2-8)Neu5Ac(a2-3)[GalNAc(b1-4)]Gal(b1-4)Glc
How it was run: as §1

[26] = target: Neu5Ac(a2-8)Neu5Ac(a2-8)Neu5Ac(a2-8)Neu5Ac(a2-3)[GalNAc(b1-4)]Gal(b1-4)Glc
How it was run: as §1

[27] = target: Neu5Ac(a2-8)Neu5Gc(a2-3)Gal(b1-4)GlcNAc
How it was run: as §1

[28] = target: Neu5Ac(b1-6)GalNAc
How it was run: as §1

[29] = target: Neu5Ac(b2-6)Gal(b1-4)GlcNAc
How it was run: as §1

[30] = target: Neu5Ac(b2-6)GalNAc
How it was run: as §1

[31] = target: Neu5Ac9Ac(a2-3)Gal(b1-3)GlcNAc
How it was run: as §1

[32] = target: Neu5Ac9Ac(a2-3)Gal(b1-4)GlcNAc
How it was run: as §1

[33] = target: Neu5Ac9Ac(a2-6)Gal(b1-4)GlcNAc
How it was run: as §1

[34] = target: Neu5Gc(a2-3)Gal(b1-3)GlcNAc
How it was run: as §1

[35] = target: Neu5Gc(a2-3)Gal(b1-3)[Fuc(a1-4)]GlcNAc
How it was run: as §1

[36] = target: Neu5Gc(a2-3)Gal(b1-4)Glc
How it was run: as §1

[37] = target: Neu5Gc(a2-3)Gal(b1-4)GlcNAc
How it was run: as §1

[38] = target: Neu5Gc(a2-3)Gal(b1-4)GlcNAc(b1-3)Gal(b1-4)GlcNAc(b1-2)Man(a1-3)[Neu5Gc(a2-3)Gal(b1-4)GlcNAc(b1-3)Gal(b1-4)GlcNAc(b1-2)Man(a1-6)]Man(b1-4)GlcNAc(b1-4)GlcNAc
How it was run: as §1

[39] = target: Neu5Gc(a2-3)Gal(b1-4)[Fuc(a1-3)]GlcNAc
How it was run: as §1

[40] = target: Neu5Gc(a2-6)Gal(b1-4)GlcNAc
How it was run: as §1

[41] = target: Neu5Gc(a2-6)GalNAc
How it was run: as §1

[42] = target: Neu5Gc(a2-8)Neu5Ac(a2-3)Gal(b1-4)GlcNAc
How it was run: as §1

[43] = target: Neu5Gc(a2-8)Neu5Gc(a2-3)Gal(b1-4)GlcNAc
How it was run: as §1

[44] = target: Neu5Gc(a2-8)Neu5Gc(a2-3)Gal(b1-4)GlcNAc(b1-3)Gal(b1-4)GlcNAc
How it was run: as §1

[45] = target: Neu5Gc(a2-8)Neu5Gc(a2-6)Gal(b1-4)GlcNAc
How it was run: as §1

[46] = target: Neu5Gc(b2-6)Gal(b1-4)GlcNAc
How it was run: as §1

B1: AMA (Arum maculatun) (protein)
chain: MAKLLLLLLLPAIVGLAVPRSAAAVGSNYMLSGETLNTDGRLTNGELTLIMQVDCNLVLYHGGWQSNTANNGRDCKLTLTDFGELVIKSGTGSTVWSSGSKQSMKGNYAAVVHPEGRLVIYGPSVFKINPSGAGLNGLPLRNIPLTNNMLFSGQVLYGDGTLSARNHKLVMQGDCNMVLYGGKYGWQSNTHGNGKYCFAMLTHKGELVIRDDDFKSVWSSKSSSKQGDYVFILQDDSLAIIYGPAVFSTGSKKMISMVTN
- glycan array binding signal (z-score) [1]: -0.106
- glycan array binding signal (z-score) [2]: -0.182
- glycan array binding signal (z-score) [3]: -0.205
- glycan array binding signal (z-score) [4]: -0.22
- glycan array binding signal (z-score) [5]: -0.204
- glycan array binding signal (z-score) [6]: -0.214
- glycan array binding signal (z-score) [7]: -0.216
- glycan array binding signal (z-score) [8]: -0.205
- glycan array binding signal (z-score) [9]: -0.206
- glycan array binding signal (z-score) [10]: -0.224
- glycan array binding signal (z-score) [11]: -0.217
- glycan array binding signal (z-score) [12]: -0.223
- glycan array binding signal (z-score) [13]: -0.217
- glycan array binding signal (z-score) [14]: -0.209
- glycan array binding signal (z-score) [15]: -0.214
- glycan array binding signal (z-score) [16]: -0.205
- glycan array binding signal (z-score) [17]: -0.218
- glycan array binding signal (z-score) [18]: -0.226
- glycan array binding signal (z-score) [19]: -0.216
- glycan array binding signal (z-score) [20]: -0.212
- glycan array binding signal (z-score) [21]: -0.218
- glycan array binding signal (z-score) [22]: -0.218
- glycan array binding signal (z-score) [23]: -0.215
- glycan array binding signal (z-score) [24]: -0.204
- glycan array binding signal (z-score) [25]: -0.203
- glycan array binding signal (z-score) [26]: -0.214
- glycan array binding signal (z-score) [27]: -0.217
- glycan array binding signal (z-score) [28]: -0.26
- glycan array binding signal (z-score) [29]: -0.228
- glycan array binding signal (z-score) [30]: -0.214
- glycan array binding signal (z-score) [31]: -0.217
- glycan array binding signal (z-score) [32]: -0.164
- glycan array binding signal (z-score) [33]: -0.224
- glycan array binding signal (z-score) [34]: 1.46
- glycan array binding signal (z-score) [35]: -0.23
- glycan array binding signal (z-score) [36]: -0.219
- glycan array binding signal (z-score) [37]: -0.222
- glycan array binding signal (z-score) [38]: -0.123
- glycan array binding signal (z-score) [39]: -0.216
- glycan array binding signal (z-score) [40]: -0.209
- glycan array binding signal (z-score) [41]: -0.217
- glycan array binding signal (z-score) [42]: -0.222
- glycan array binding signal (z-score) [43]: -0.22
- glycan array binding signal (z-score) [44]: -0.215
- glycan array binding signal (z-score) [45]: -0.211
- glycan array binding signal (z-score) [46]: -0.21

— the supplement of paper PMC8728848
